# According to PubChem BioAssay AID588453 (National Center for Advancing Translational Sciences (NCATS), 2011):
# The campaign covered roughly 390,000 compounds. About 4,000 (1%) were called active. The inconclusive results got no clear call from the source; some entries with a clear call stand among them for comparison. Calls come from the whole dose curve; as a rule, active = well fitted inhibition curve with a large enough effect; inconclusive = small, poorly fitted or top-dose-only effect; inactive = no such curve, though single readings can be large or run the other way. Potencies of inconclusive entries are doubtful fits and often do not repeat.
# Biological target: Thioredoxin reductase 1, cytoplasmic (Rattus norvegicus) (UniProt O89049)
# Test: qHTS Assay for Inhibitors of Mammalian Selenoprotein Thioredoxin Reductase 1 (TrxR1): qHTS; note: nearly all actives have a fitted effect of over 65% in size
# Details: recombinant rTrxR1, NADPH fluorescence consumption, selenite substrate; series mostly up to 114 µM
# In short: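 Rat TrxR1 (90 nM in the dispensed reagent) was pre-reduced with 400 uM NADPH for 5 min at room temperature, then incubated with compound for 15 min. After 400 uM selenite was added, NADPH fluorescence (Ex 340/Em 450 nm) was followed for 8 min.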
# Potency is the fitted concentration of half-maximal effect; tags give direction and shape of the fitted curve.
# Chain of UniProt O89049 (O89049 whole entry, looked up): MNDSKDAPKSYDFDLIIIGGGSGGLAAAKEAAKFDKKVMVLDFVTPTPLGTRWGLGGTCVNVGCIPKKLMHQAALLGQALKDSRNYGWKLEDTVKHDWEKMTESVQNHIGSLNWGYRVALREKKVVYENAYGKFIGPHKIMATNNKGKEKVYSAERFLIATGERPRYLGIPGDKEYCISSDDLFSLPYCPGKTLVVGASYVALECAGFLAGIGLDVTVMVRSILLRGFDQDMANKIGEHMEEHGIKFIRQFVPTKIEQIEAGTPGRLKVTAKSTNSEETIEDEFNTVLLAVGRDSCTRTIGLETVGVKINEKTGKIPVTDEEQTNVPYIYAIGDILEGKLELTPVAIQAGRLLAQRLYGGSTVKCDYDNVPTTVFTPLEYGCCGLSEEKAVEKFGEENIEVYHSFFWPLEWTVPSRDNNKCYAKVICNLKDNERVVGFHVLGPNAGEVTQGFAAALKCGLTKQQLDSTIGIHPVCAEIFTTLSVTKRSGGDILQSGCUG
row,SMILES,Potency
1,COc1ccc(C(=O)CSc2ccc(-c3ccco3)nn2)cc1,"inconclusive: 50.1 µM [inhibitor, partial curve]"
2,CCOC(=O)C1CCN(C(c2cccc(F)c2)c2c(O)cc(C)n(CCOC)c2=O)CC1 (centres undefined),"inconclusive: 22.4 µM [inhibitor, single point]"
3,COC(=O)C1=C(C)NC(C)=C(C(=O)OC(C)C)C1c1cccc2nonc12 (centres undefined),"inconclusive: 79.4 µM [inhibitor, partial curve, poor fit]"
4,Nc1c(C(=O)N/N=C/c2ccccc2Cl)oc2nc(-c3ccccc3)cc(-c3ccco3)c12,inactive
5,COc1cc([C@@H]2C[C@H]3CN(c4ccccc4)C(=O)[C@]34CCCN24)cc(OC)c1OC,"inconclusive: 50.1 µM [inhibitor, partial curve, poor fit]"
6,O=C(Nc1ccc2c(c1)CCCN2C(=O)c1cccs1)c1ccccc1Cl,inactive
7,CSCc1ccc(C(=O)N2CCC(N3CCC(C(=O)NC(C)C)CC3)CC2)o1,"inconclusive: 50.1 µM [inhibitor, partial curve]"
8,Cc1ccc(NC(=O)Nn2cnnc2)cc1Cl,inactive
9,NS(=O)(=O)c1ccc(CCNC(=O)c2cc([N+](=O)[O-])ccc2N2CCCCC2)cc1,"inconclusive: 89.1 µM [inhibitor, single point]"
10,COc1ccccc1N1CC(C(=O)Nc2nnc(SCc3ccccn3)s2)CC1=O (centres undefined),inactive
11,Cc1ccc(N2CCOCC2)c2c1C(=O)c1ccccc1C2=O,inactive
12,O=C(CSc1nnc(-c2ccncc2)s1)Nc1ccccc1,inactive
13,CC1(c2ccc(Cl)cc2)NC(=O)N(CC(=O)NC(=O)NCc2ccco2)C1=O (centres undefined),"inconclusive: 17.8 µM [inhibitor, single point]"
14,Nc1ccc(-c2nc3ccc(-c4nc5ccccc5o4)cc3[nH]2)cc1,"inconclusive: 8.91 µM [inhibitor, single point]"
15,CC(=O)Oc1ccc(-c2csc(Nc3cccc(C)n3)n2)cc1,inactive
16,Cc1cc(=O)n(CC(=O)N2CCN(c3ccccc3F)CC2)c2c1c(C)nn2C,inactive
17,CC(=O)N1N=C(c2ccc(C)cc2)OC1c1ccc(C(C)C)cc1 (centres undefined),inactive
18,CCOC(=O)c1[nH]c(C)c(CCC(=O)Nc2cc(C)ccc2OC)c1C,inactive
19,CCOC(=O)C1CCN(C(=O)c2ccc(-n3ccc4ccccc43)s2)CC1,inactive
20,O=[N+]([O-])c1cc(S(=O)(=O)N2CCCCCC2)ccc1Cl,"inconclusive: 8.91 µM [inhibitor, partial curve]"
21,CN(C)c1ccc(N2CN=C3SCC(=O)N3C2)cc1,"inconclusive: 31.6 µM [inhibitor, single point]"
22,CCn1cc([N+](=O)[O-])c(C(=O)Nc2ccc3c(c2)OCCO3)n1,inactive
23,COC(=O)c1ccccc1NC(=O)c1cc2sccc2n1C,inactive
24,COc1ccc(-c2noc(-c3ccccc3C(=O)NCc3ccco3)n2)cc1,inactive
25,Cc1ccc(SCC(=O)NC2CCS(=O)(=O)C2)cc1 (centres undefined),"inconclusive: 79.4 µM [inhibitor, partial curve, poor fit]"

row,SMILES,Potency
1,COC(=O)c1ccccc1NC(=O)NC1CCN(Cc2ccccc2)CC1,inactive
2,CCCCN(C)C(=O)CS(=O)(=O)Cc1nc(-c2cccc(OC)c2)oc1C,"inconclusive: 39.8 µM [inhibitor, partial curve, poor fit]"
3,CSc1nc(-c2ccco2)nn1C(=O)c1cccs1,"inconclusive: 28.2 µM [inhibitor, single point]"
4,N#Cc1ccc(/C=C/C(=O)c2ccccc2)cc1,"inconclusive: 10 µM [inhibitor, partial curve, poor fit]"
5,O=C1OC(NC(=O)c2ccccc2)C(n2cc(CO)nn2)=C1Cl (centres undefined),active: 10 µM
6,O=C(CC(Nc1ccc(Cl)cc1)C(=O)O)c1ccccc1 (centres undefined),active: 28.2 µM
7,COc1ccc(N(C(=O)c2ccco2)C(C(=O)NC2CCCC2)c2cccs2)cc1 (centres undefined),inactive
8,N#CCCn1cc(/C=N/NC(N)=S)c(-c2ccccc2)n1,"inconclusive: 79.4 µM [inhibitor, partial curve, poor fit]"
9,COc1ccc(C(=O)Nc2ccc(S(=O)(=O)N3CCc4ccccc43)cc2)cc1,inactive
10,O=C(CN1C(=O)NC2(CCCC2)C1=O)NC(c1ccccc1)c1ccccc1,"inconclusive: 79.4 µM [inhibitor, partial curve, poor fit]"
11,Nc1cc(S(=O)(=O)O)cc2ccc(S(=O)(=O)O)cc12,"inconclusive: 79.4 µM [inhibitor, single point]"
12,COC(=O)C1=C(C)N(Cc2ccccc2)C(=O)/C1=C\c1ccco1,active: 50.1 µM
13,COc1ccc(C(=O)NCCn2cc(SCC(=O)Nc3nnc(C)s3)c3ccccc32)cc1,inactive
14,O=C1c2ccccc2NC(c2ccc(-c3cccs3)o2)N1O (centres undefined),"inconclusive: 50.1 µM [inhibitor, partial curve]"
15,O=C(O)C1=C[C@@H](c2csc3ccccc23)C[C@@H](OCCCCO)O1,inactive
16,CC#Cc1cc2c(cc1O)CCC1C2CCC2(C)C(O)CCC12 (centres undefined),"inconclusive: 50.1 µM [inhibitor, partial curve]"
17,O=C1/C(=C/c2ccccc2[N+](=O)[O-])COc2ccccc21,"inconclusive: 15.8 µM [inhibitor, full curve]"
18,CCOc1ccc(C2CC(=O)Nc3c2c(=O)nc(SCc2ccccc2C)n3C)cc1OC (centres undefined),"inconclusive: 35.5 µM [inhibitor, partial curve]"
19,O=C(Nc1ccc(S(=O)(=O)NCc2ccco2)cc1)c1cccc(F)c1,"inconclusive: 15.8 µM [inhibitor, full curve]"
20,Nc1nc2c(nc(N3CCCCC3)n2[C@@H]2O[C@H](CO)[C@@H](O)[C@H]2O)c(=O)[nH]1,inactive
21,Cc1nc(NCc2ccccn2)c2c3c(sc2n1)CCCC3,inactive
22,O=C(COc1ccc(Br)cc1Cl)NC(=S)Nc1ccccn1,inactive
23,O=c1oc2c(CN3CCN(CCO)CC3)c(O)ccc2cc1-c1ccccc1,"inconclusive: 39.8 µM [inhibitor, single point]"
24,COc1ccc(-c2nc3c(C#N)c[nH]n3c2NC2CCCC2)c(OC)c1,inactive
